Source: PubChem BioAssay AID360 (National Center for Advancing Translational Sciences (NCATS), 2006)
The campaign covered roughly 48,000 compounds. About 550 (1.1%) were called active. Not shown: some 4% with an inconclusive outcome. Rule as the data show it: active = potency below about 15 µM; inconclusive = mostly about 16 µM to 33 µM; inactive = weaker than that. Some of the results follow.

What follows are compounds tested against Lysosomal acid glucosylceramidase (Homo sapiens) (UniProt P04062) (assay: Glucocerebrosidase). Conditions: purified enzyme, resorufin glucoside fluorescence (screen aimed at inhibitors), 20 min.
In short: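 Compounds titrated against 0.2 nM normal enzyme, 30 uM resorufin beta-D-glucopyranoside substrate, citrate/phosphate buffer with taurocholate and tween-20, pH 5.9. Reaction ran 20 min at room temperature; fluorescence (Ex 548/Em 600) gave AC50.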
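Also: the screen sought inhibitors.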
Potency is read from the fitted curve at half-maximal effect.

UniProt P04062, sequence (P04062 whole entry, looked up): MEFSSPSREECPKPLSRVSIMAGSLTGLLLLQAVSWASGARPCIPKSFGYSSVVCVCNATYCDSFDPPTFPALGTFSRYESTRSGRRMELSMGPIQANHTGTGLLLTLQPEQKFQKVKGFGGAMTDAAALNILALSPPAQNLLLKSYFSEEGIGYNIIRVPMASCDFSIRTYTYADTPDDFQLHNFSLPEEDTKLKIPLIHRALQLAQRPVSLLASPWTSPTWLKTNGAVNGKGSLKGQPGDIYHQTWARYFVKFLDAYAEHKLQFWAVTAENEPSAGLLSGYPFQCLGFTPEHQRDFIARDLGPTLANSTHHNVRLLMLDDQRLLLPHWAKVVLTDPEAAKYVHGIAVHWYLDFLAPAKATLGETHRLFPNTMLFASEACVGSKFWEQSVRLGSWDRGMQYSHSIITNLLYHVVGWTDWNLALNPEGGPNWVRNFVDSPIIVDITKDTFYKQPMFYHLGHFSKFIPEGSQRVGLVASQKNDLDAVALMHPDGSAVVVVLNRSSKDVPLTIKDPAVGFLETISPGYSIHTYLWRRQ

Potency, inactive:
COc1ccc2[nH]c(=O)c(CN(C(=O)c3cccnc3)c3ccccc3OC)cc2c1 > 76.9 µM, O=C(Nc1cccc(Cl)c1Cl)C1CCN(c2ncccn2)CC1 > 76.9 µM, Cc1ccc(S(=O)(=O)N2CCN(C(=O)CN3CCN(C)CC3)C2)cc1 > 76.9 µM, O=C(CCCNS(=O)(=O)c1cccc2nsnc12)NCCc1ccccc1 > 76.9 µM, O=P(O)(O)c1ccccc1OCCOCCOc1ccccc1P(=O)(O)O > 76.9 µM, O=C(Nc1ccc2c(c1)OCCO2)C1CCN(S(=O)(=O)c2ccc(Br)s2)CC1 > 76.9 µM, CCOC(=O)c1c(NC(=O)CSc2nnc(CNC(=O)c3ccco3)n2C)sc2c1CCC2 > 76.9 µM, O=C(O)CCCC(=O)Nc1ccccc1C(=O)O > 76.9 µM, C/C=C/c1ccc(Oc2nnnn2-c2ccc(C(=O)O)cc2)c(OC)c1 > 76.9 µM, CCn1c(CNC(C)=O)nnc1SCC(=O)c1ccc(Br)cc1 > 76.9 µM, CCOC(=O)CN1CC23C=CC(O2)C(C(=O)Nc2ccc(F)c(C)c2)C3C1=O (centres undefined) > 76.9 µM, CSc1nsc(SCC(=O)Nc2ccccn2)n1 > 76.9 µM, NC(=O)C1CCN(C(=O)CSc2nc3c(c(-c4ccccc4)n2)CCCC3)CC1 > 76.9 µM, O=C(CN(Cc1ccc2c(c1)OCO2)C(=O)c1cnsn1)NC1CCCC1 > 76.9 µM, CC(C)(C)C1CCc2onc(C(=O)Nc3cnn(Cc4ccc(F)cc4)c3)c2C1 (centres undefined) > 76.9 µM, O=C(NCC1CCCO1)c1ccc(NC(=O)C2CC=CCC2C(=O)O)cc1 (centres undefined) > 76.9 µM, COc1cccc(NC(=O)CN(c2cccc(F)c2)S(C)(=O)=O)c1 > 76.9 µM, Cc1nn(S(=O)(=O)N2CCCCC2)c(C)c1Br > 76.9 µM, CCc1nnc(NC(=O)NCN2C(=O)C3C4C=CC(C4)C3C2=O)s1 (centres undefined) > 76.9 µM, Cc1ccc2c(c1)nnn2C1CCN(CC(=O)N2CCN(c3ccc(F)cc3)CC2)CC1 > 76.9 µM, O=C(Nc1ccccc1)NC1CCN(CCCN2C(=O)c3ccccc3C2=O)CC1 > 76.9 µM, COc1cc(C(=O)Nc2ccc3c(c2)OCCO3)ccc1OC(F)F > 76.9 µM, CCC(=O)Nc1cc2c(cc1C(=O)c1ccccc1)OCCO2 > 76.9 µM, Cc1ccc(OCC(=O)NCc2ccco2)cc1C > 76.9 µM, N#CC1=C(N)SC(N)=C(C#N)C1c1c(Cl)cccc1Cl > 76.9 µM, Nc1nnnn1/N=C/C=C/c1ccccc1 > 76.9 µM, COC(=O)c1ccc2c(c1)SC1=C(CCCC1=O)N2 > 76.9 µM, CCOC(=O)N1CCN(C(=O)c2ccc3c(=O)n(-c4ccc(OC)cc4OC)c(=S)[nH]c3c2)CC1 > 76.9 µM, c1ccc(SCc2nc(-c3ccncc3)no2)cc1 > 76.9 µM, O=C(Cc1cn2ccsc2n1)Nc1cccc2cnccc12 > 76.9 µM, Cc1ccc(S(=O)(=O)N2CCN(C3CCN(Cc4ccccc4)CC3)CC2)cc1 > 76.9 µM, Cc1cccc2cc(CN(Cc3ccco3)C(=O)c3ccncc3)c(=O)[nH]c12 > 76.9 µM, O=C(CN(Cc1ccccc1)C(=O)CCC(=O)Nc1nccs1)NCc1ccco1 > 76.9 µM, COc1ccc2c(c1OC)C(=O)OC2Nc1ccccc1S(=O)(=O)C(F)F (centres undefined) > 76.9 µM, C(=C\CSc1ncn[nH]1)/CSc1ncn[nH]1 > 76.9 µM, O=C(NCC(c1cccnc1)N1CCOCC1)c1cccs1 (centres undefined) > 76.9 µM, CCC(CO)NCCNC(CC)CO (centres undefined) > 76.9 µM, COCCn1nnnc1C(c1ccccc1OC)N1CCN(c2ccccc2F)CC1 (centres undefined) > 76.9 µM, COc1ccc(C(=O)NCc2nnc(SCC(=O)NCc3ccc(F)cc3)o2)cc1 > 76.9 µM, Cc1onc(-c2ccccc2)c1C(=O)Nc1nc(-c2cc(F)ccc2F)cs1 > 76.9 µM, Cc1ccc(-c2noc(CN3CCC(C(N)=O)CC3)n2)cc1 > 76.9 µM, CCCCOc1ccccc1NC(=O)C=C(C)C > 76.9 µM, Cn1nc(CC(=O)Nc2cccnc2N2CCOCC2)c2ccccc2c1=O > 76.9 µM, CCOC(=O)c1cccc(NC(=O)C(NS(=O)(=O)c2ccc3c(c2)CCN3C(C)=O)C(C)C)c1 (centres undefined) > 76.9 µM, O=C(CN1CC(c2ccccc2)CC1=O)OCc1ccccc1F (centres undefined) > 76.9 µM, Cn1c(SCc2nc3ccccc3c(=O)[nH]2)nnc1-c1ccco1 > 76.9 µM, O=C1CN(CC(=O)N2CCOCC2)c2ccccc2O1 > 76.9 µM, COc1ccc(C2C(=O)N(C3CCCCC3)CC(=O)N2CCc2ccccc2)cc1OC (centres undefined) > 76.9 µM, Cc1nnc(SCC(=O)Nc2nccs2)[nH]c1=O > 76.9 µM, CCNC(=O)Nc1cc2nc(C)n(Cc3ccc(Br)cc3)c2nc1C > 76.9 µM, Cc1ccsc1C(=O)OCC(=O)Nc1sccc1C(N)=O > 76.9 µM, CC(C)(C)c1ccc(C(=O)NCCC(=O)NCc2ccco2)cc1 > 76.9 µM, CCOC(=O)CSc1nnc(C)n1N > 76.9 µM, Cc1cc2nc(C)n(CCCN)c2cc1C > 76.9 µM, CCC(=O)Nc1ccc(NC(=O)c2ccco2)c(OC)c1 > 76.9 µM, CCCCCc1c(C)nc(N2CCc3ccccc3C2)[nH]c1=O > 76.9 µM, O=C(CCc1ccc(S(=O)(=O)N2CCOCC2)cc1)NCCCN1CCCC1=O > 76.9 µM, CCCCSc1nnc(CCCCCNC(=O)OC(C)(C)C)o1 > 76.9 µM, Cc1ccc(NC(=O)CSCC(=O)O)c(C)c1 > 76.9 µM
